Results taken from the GPR68 mutational scans of Howard et al. (2025).
The least precise scores are not listed. Two further conditions of the source, in which the scores hardly spread, are not listed. Read del as a deletion of the residues named and ins as an insertion between two positions. For part of these data: How much ogerin was present is not stated here.

B1: GPR68, Q15743 (parent)
chain: MGNITADNSSMSCTIDHTIHQTLAPVVYVTVLVVGFPANCLSLYFGYLQIKARNELGVYLCNLTVADLFYICSLPFWLQYVLQHDNWSHGDLSCQVCGILLYENIYISVGFLCCISVDRYLAVAHPFRFHQFRTLKAAVGVSVVIWAKELLTSIYFLMHEEVIEDENQHRVCFEHYPIQAWQRAINYYRFLVGFLFPICLLLASYQGILRAVRRSHGTQKSRKDQIQRLVLSTVVIFLACFLPYHVLLLVRSVWEASCDFAKGVFNAYHFSLLLTSFNCVADPVLYCFVSETTHRDLARLRGACLAFLTCSRTGRAREAYPLGAPEASGKSGAQGEEPELLTKLHPAFQTPNSPGSGGFPTGRLA

Key:
[1] = variants of: B1; experiment: cAMP reporter score (Enrich2 score, wild type = 0); higher = more signal; HEK293T, FACS bins
[2] = variants of: B1; experiment: surface expression score (Enrich2 score, wild type = 0); higher = more signal; HEK293T, FACS bins

E160_E161del
cAMP reporter score ([1]; pH 5.5): -1.65
cAMP reporter score ([1]; pH 6): -0.481
cAMP reporter score ([1]; pH 6, modulator: ogerin): -1.3
cAMP reporter score ([1]; pH 6.5, modulator: ogerin): -1.1
surface expression score [2]: 1.87

E161_V162insG
cAMP reporter score ([1]; pH 5.5): 0.478
cAMP reporter score ([1]; pH 6): -0.183
cAMP reporter score ([1]; pH 6, modulator: ogerin): -0.106
cAMP reporter score ([1]; pH 6.5, modulator: ogerin): -0.493
surface expression score [2]: 1.87

E149_L151del
cAMP reporter score ([1]; pH 5.5): -1.84
cAMP reporter score ([1]; pH 6): -0.835
cAMP reporter score ([1]; pH 6, modulator: ogerin): -1.99
cAMP reporter score ([1]; pH 6.5, modulator: ogerin): -0.673
surface expression score [2]: -1.92

A147_K148insGSG
cAMP reporter score ([1]; pH 5.5): -2.12
cAMP reporter score ([1]; pH 6, modulator: ogerin): -1.78
cAMP reporter score ([1]; pH 6.5, modulator: ogerin): -1.39

L157del
cAMP reporter score ([1]; pH 5.5): -1.03
cAMP reporter score ([1]; pH 6): -0.635
cAMP reporter score ([1]; pH 6, modulator: ogerin): -1.16
cAMP reporter score ([1]; pH 6.5, modulator: ogerin): -1.33
surface expression score [2]: -0.686

E149_L150insG
cAMP reporter score ([1]; pH 5.5): -1.52
cAMP reporter score ([1]; pH 6): -1.54
cAMP reporter score ([1]; pH 6, modulator: ogerin): -1.22
cAMP reporter score ([1]; pH 6.5, modulator: ogerin): -0.937
surface expression score [2]: -0.705

V143_V144del
cAMP reporter score ([1]; pH 5.5): -1.15
cAMP reporter score ([1]; pH 6): -0.533
cAMP reporter score ([1]; pH 6, modulator: ogerin): -0.887
cAMP reporter score ([1]; pH 6.5, modulator: ogerin): -0.704
surface expression score [2]: -2.78

V143_V144insGSG
cAMP reporter score ([1]; pH 5.5): -1.39
cAMP reporter score ([1]; pH 6): -1.51
cAMP reporter score ([1]; pH 6, modulator: ogerin): -1.56
cAMP reporter score ([1]; pH 6.5, modulator: ogerin): -0.684
surface expression score [2]: -2.15

L157_M158del
cAMP reporter score ([1]; pH 5.5): -1.8
cAMP reporter score ([1]; pH 6): -1.29
cAMP reporter score ([1]; pH 6, modulator: ogerin): -1.3
cAMP reporter score ([1]; pH 6.5, modulator: ogerin): -0.858
surface expression score [2]: -2.29

V162A
cAMP reporter score ([1]; pH 5.5): -0.732
cAMP reporter score ([1]; pH 6, modulator: ogerin): -0.922
cAMP reporter score ([1]; pH 6.5, modulator: ogerin): -1.82
surface expression score [2]: 0.318

V162C
cAMP reporter score ([1]; pH 5.5): -1.62
cAMP reporter score ([1]; pH 6): -0.776
cAMP reporter score ([1]; pH 6, modulator: ogerin): -2.25
cAMP reporter score ([1]; pH 6.5, modulator: ogerin): -1.19
surface expression score [2]: -1.21

V162E
cAMP reporter score ([1]; pH 5.5): -1.56
cAMP reporter score ([1]; pH 6): -0.735
cAMP reporter score ([1]; pH 6, modulator: ogerin): -1.86
cAMP reporter score ([1]; pH 6.5, modulator: ogerin): -1.15
surface expression score [2]: -0.505

V162I
cAMP reporter score ([1]; pH 5.5): 0.553
cAMP reporter score ([1]; pH 6): 0.331
cAMP reporter score ([1]; pH 6, modulator: ogerin): 0.404
cAMP reporter score ([1]; pH 6.5, modulator: ogerin): -0.145
surface expression score [2]: 0.451

V162D
cAMP reporter score ([1]; pH 5.5): -0.679
cAMP reporter score ([1]; pH 6.5, modulator: ogerin): -0.339
surface expression score [2]: -0.192

V162P
cAMP reporter score ([1]; pH 5.5): -1.06
cAMP reporter score ([1]; pH 6): -0.549
cAMP reporter score ([1]; pH 6, modulator: ogerin): -0.725
cAMP reporter score ([1]; pH 6.5, modulator: ogerin): -0.658
surface expression score [2]: 0.705

V162N
cAMP reporter score ([1]; pH 5.5): -0.724
cAMP reporter score ([1]; pH 6): -1.07
cAMP reporter score ([1]; pH 6, modulator: ogerin): -0.586
cAMP reporter score ([1]; pH 6.5, modulator: ogerin): -1.15
surface expression score [2]: 1.58

V162Q
cAMP reporter score ([1]; pH 5.5): -1.3
cAMP reporter score ([1]; pH 6): -0.913
cAMP reporter score ([1]; pH 6, modulator: ogerin): -1.77
cAMP reporter score ([1]; pH 6.5, modulator: ogerin): -1.32
surface expression score [2]: 0.464

V162M
cAMP reporter score ([1]; pH 5.5): -0.526
cAMP reporter score ([1]; pH 6): -0.355
cAMP reporter score ([1]; pH 6, modulator: ogerin): -0.658
cAMP reporter score ([1]; pH 6.5, modulator: ogerin): -0.569
surface expression score [2]: -0.168

V162K
cAMP reporter score ([1]; pH 5.5): -1.68
cAMP reporter score ([1]; pH 6, modulator: ogerin): -1.15
cAMP reporter score ([1]; pH 6.5, modulator: ogerin): -1.03
surface expression score [2]: 1.03

V162G
cAMP reporter score ([1]; pH 5.5): -0.807
cAMP reporter score ([1]; pH 6): -0.674
cAMP reporter score ([1]; pH 6, modulator: ogerin): -0.655
cAMP reporter score ([1]; pH 6.5, modulator: ogerin): -0.419
surface expression score [2]: 1.13

V162H
cAMP reporter score ([1]; pH 5.5): -0.393
cAMP reporter score ([1]; pH 6): -1.51
cAMP reporter score ([1]; pH 6, modulator: ogerin): -1.34
cAMP reporter score ([1]; pH 6.5, modulator: ogerin): -0.866
surface expression score [2]: 0.936

V162L
cAMP reporter score ([1]; pH 5.5): 0.905
cAMP reporter score ([1]; pH 6): 0.793
cAMP reporter score ([1]; pH 6, modulator: ogerin): 1.79
cAMP reporter score ([1]; pH 6.5, modulator: ogerin): 0.826
surface expression score [2]: 0.821

V162F
cAMP reporter score ([1]; pH 5.5): -0.93
cAMP reporter score ([1]; pH 6): -0.24
cAMP reporter score ([1]; pH 6, modulator: ogerin): -1.39
cAMP reporter score ([1]; pH 6.5, modulator: ogerin): -0.973
surface expression score [2]: 1.25

I145_A147del
cAMP reporter score ([1]; pH 5.5): -0.853
cAMP reporter score ([1]; pH 6): -2.13
cAMP reporter score ([1]; pH 6, modulator: ogerin): -1.72
cAMP reporter score ([1]; pH 6.5, modulator: ogerin): -0.494
surface expression score [2]: -2.92

T152_S153del
cAMP reporter score ([1]; pH 5.5): -1.16
cAMP reporter score ([1]; pH 6): -1.6
cAMP reporter score ([1]; pH 6, modulator: ogerin): -1.37
cAMP reporter score ([1]; pH 6.5, modulator: ogerin): -1.27
surface expression score [2]: -1.55

Y155_F156insGSG
cAMP reporter score ([1]; pH 5.5): -1.8
cAMP reporter score ([1]; pH 6): -0.992
cAMP reporter score ([1]; pH 6, modulator: ogerin): -1.95
cAMP reporter score ([1]; pH 6.5, modulator: ogerin): -1.08
surface expression score [2]: -1.91

I154_Y155del
cAMP reporter score ([1]; pH 5.5): -1.43
cAMP reporter score ([1]; pH 6): -1.81
cAMP reporter score ([1]; pH 6, modulator: ogerin): -1.43
cAMP reporter score ([1]; pH 6.5, modulator: ogerin): -1.46
surface expression score [2]: -2.09

V143del
cAMP reporter score ([1]; pH 5.5): -1.34
cAMP reporter score ([1]; pH 6): -0.85
cAMP reporter score ([1]; pH 6, modulator: ogerin): -1.89
cAMP reporter score ([1]; pH 6.5, modulator: ogerin): -1.02
surface expression score [2]: -1.98

S142del
cAMP reporter score ([1]; pH 5.5): -1.8
cAMP reporter score ([1]; pH 6): -0.845
cAMP reporter score ([1]; pH 6, modulator: ogerin): -1.64
cAMP reporter score ([1]; pH 6.5, modulator: ogerin): -0.661
surface expression score [2]: -2.25

A147_K148del
cAMP reporter score ([1]; pH 5.5): -1.44
cAMP reporter score ([1]; pH 6): -1.16
cAMP reporter score ([1]; pH 6, modulator: ogerin): -2.22
cAMP reporter score ([1]; pH 6.5, modulator: ogerin): -1.69
surface expression score [2]: -2.02
